According to PMC4336329 (PLoS ONE, 2015):
Hit rate of the full screen: of about 310,000 compounds, about 2,200 (0.71%) showed an effect of 50% or more. The effect is printed as a negative number. This is one part of the list.

Target: human ether-à-go-go-related gene (hERG) potassium channel (human, UniProt Q12809)
Assay: primary screen, population patch clamp on CHO cells stably expressing hERG

Chain of human ether-à-go-go-related gene (hERG) potassium channel (Q12809 whole entry, looked up): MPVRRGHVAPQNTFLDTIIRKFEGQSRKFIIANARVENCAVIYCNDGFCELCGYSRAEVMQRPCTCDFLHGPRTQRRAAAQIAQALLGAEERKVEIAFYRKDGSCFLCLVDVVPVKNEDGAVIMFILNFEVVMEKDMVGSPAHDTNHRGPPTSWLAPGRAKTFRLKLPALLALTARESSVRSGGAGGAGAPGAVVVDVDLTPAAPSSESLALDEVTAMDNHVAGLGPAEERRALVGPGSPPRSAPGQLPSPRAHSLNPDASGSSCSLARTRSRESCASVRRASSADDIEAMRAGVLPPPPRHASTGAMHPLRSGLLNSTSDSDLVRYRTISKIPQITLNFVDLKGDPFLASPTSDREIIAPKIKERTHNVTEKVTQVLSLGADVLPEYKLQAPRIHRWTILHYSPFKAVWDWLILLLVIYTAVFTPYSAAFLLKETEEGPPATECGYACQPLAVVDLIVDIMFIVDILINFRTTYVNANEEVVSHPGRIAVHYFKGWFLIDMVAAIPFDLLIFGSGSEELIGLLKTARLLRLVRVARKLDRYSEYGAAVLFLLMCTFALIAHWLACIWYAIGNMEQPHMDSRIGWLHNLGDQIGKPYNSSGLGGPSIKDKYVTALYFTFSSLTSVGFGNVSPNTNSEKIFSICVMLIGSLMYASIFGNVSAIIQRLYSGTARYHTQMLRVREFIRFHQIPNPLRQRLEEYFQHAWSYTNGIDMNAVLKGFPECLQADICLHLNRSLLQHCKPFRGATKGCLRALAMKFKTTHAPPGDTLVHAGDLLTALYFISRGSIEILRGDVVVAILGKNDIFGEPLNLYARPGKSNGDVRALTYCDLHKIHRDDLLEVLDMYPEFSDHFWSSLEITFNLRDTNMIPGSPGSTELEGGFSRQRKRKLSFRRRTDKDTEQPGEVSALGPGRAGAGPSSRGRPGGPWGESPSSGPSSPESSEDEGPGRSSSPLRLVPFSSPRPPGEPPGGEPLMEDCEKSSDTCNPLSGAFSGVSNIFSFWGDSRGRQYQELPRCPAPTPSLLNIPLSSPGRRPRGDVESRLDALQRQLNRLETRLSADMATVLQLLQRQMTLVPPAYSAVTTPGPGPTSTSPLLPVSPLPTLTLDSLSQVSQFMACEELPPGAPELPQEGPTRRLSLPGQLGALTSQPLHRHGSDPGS

SMILES	hERG current change (%, negative = inhibition) at 1uM [%]
CN(C)CCCNC(=O)/C(=N\O)c1ccccc1	14
O=C(CCCn1c(SCC(=O)Nc2ccccc2C(F)(F)F)nc2ccccc2c1=O)NCC1CCCO1 (centres unmarked)	8.07
CCn1c(/N=C/c2ccccc2O)nc2ccccc21	14.7
Cc1cc(C(=O)OC2CCOC2=O)c2ccccc2n1 (centres unmarked)	9.38
Cc1[nH]nc2c1C(c1cc(Br)cs1)C(C#N)=C(N)O2 (centres unmarked)	17.1
COc1ccccc1CNC(=O)C[n+]1ccccc1.[Cl-]	7.69
COC(=O)c1c(C)[nH]c(C(=O)/C=C/c2ccccc2)c1C	9.33
COc1ccc2nc(Nc3ccc4c(c3)OCO4)sc2c1	-1.69
CN1CCN(S(=O)(=O)c2cc(C(F)(F)F)ccc2Cl)CC1.Cl	11.3
CC(C)(C)C1CCC2(CC1)NC(CO)(CO)CO2 (centres unmarked)	12
COc1ccc(NC(=O)NCCCCc2ccccc2)cc1	6.14
COc1ccc(-n2ncc(C(C)NS(=O)(=O)c3ccc(C)s3)c2C)cc1 (centres unmarked)	7.28
COc1ccccc1CNC(=O)COC(=O)COc1ccccc1Cc1ccccc1	6.41
COc1ccc(/C=N/N=C2/NC(=O)C(CC(=O)O)S2)cc1OCc1ccc(Cl)cc1Cl (centres unmarked)	15.3
CC(CN1CCN(C/C=C/c2ccccc2)CC1)c1ccccc1.O=C(O)C(=O)O (centres unmarked)	6.85
Cc1cc2c(cc(C(=O)NCc3cccnc3)n2Cc2ccc(Cl)cc2)o1	15.2
Oc1ccc(Br)cc1-c1cc(-c2ccccc2)n[nH]1	3.3
COc1ccc(S(=O)(=O)NCc2ccccc2Cl)cc1OC	8.41
CCc1cccc(CC)c1NC(=S)Nc1cccc(Cl)c1Cl	12.7
O=C(COc1ccc(F)cc1)N(Cc1cccs1)C1CCS(=O)(=O)C1 (centres unmarked)	-3.69
Cc1ccc(-n2c(=O)c(C#N)cc3c(=O)n4cccc(C)c4nc32)cc1	9.08
Cc1ccc(OCC(O)CNCc2ccccc2)cc1C (centres unmarked)	-4.05
COc1ccc(C(=O)Nc2ccccc2C(=O)N2CCOCC2)cc1OC	21.1
COC(=O)C1=NNC2(c3ccc(Cl)cc3)C(=O)N(c3ccc(Cl)cc3)C(=O)C12 (centres unmarked)	7.44
CCOc1ccc(OCCn2ccnc2)cc1	13.4
CCCCOc1ccc(C(O)(CCC)CCN2CCOCC2)cc1 (centres unmarked)	-11
